# Laboratory results: the supplement of paper PMC8728848
# This is one part of the list.
# B1: MGL6A (Homo sapiens) (protein)
# chain: MTRTYENFQYLENKVKVQGFKNGPLPLQSLLQRLCSGPCHLLLSLGLGLLLLVIICVVGFQNSKFQRDLVTLRTDFSNFTSNTVAEIQALTSQGSSLEETIASLKAEVEGFKQERQAVHSEMLLRVQQLVQDLKKLTCQVATLNNNGEEASTEGTCCPVNWVEHQDSCYWFSHSGMSWAEAEKYCQLKNAHLVVINSREEQNFVQKYLGSAYTWMGLSDPEGAWKWVDGTDYATGFQNWKPGQPDDWQGHGLGGGEDCAHFHPDGRWNDDVCQRPYHWVCEAGLGQTSQESH
# How the values were obtained:
# Experiment in all cases: glycan array binding signal (z-score within array); higher = stronger binding
# Details in all cases: glycan notation: IUPAC condensed, linker removed
# [1] = biological target: Neu5Ac(a2-3)Gal(b1-4)GlcNAc(b1-6)GalNAc
# In short: (§1)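 Glycan array data were curated from 3228 arrays in the Consortium for Functional Glycomics database and kept only where the protein sequence was available. Glycan names were converted to IUPAC-condensed notation, and columns mapping to the same glycan were averaged. The binding signal is a within-array Z-score, averaged across arrays of the same protein sequence at different concentrations or buffers and across linkers. Negative Z-scores can be read as non-binding.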
# [2] = biological target: Neu5Ac(a2-3)Gal(b1-4)GlcNAc(b1-6)[Gal(b1-3)]GalNAc
# In short: as §1
# [3] = biological target: Neu5Ac(a2-3)Gal(b1-4)GlcNAc(b1-6)[Neu5Ac(a2-3)Gal(b1-3)]GalNAc
# In short: as §1
# [4] = biological target: Neu5Ac(a2-3)Gal(b1-4)GlcNAc6S
# In short: as §1
# [5] = biological target: Neu5Ac(a2-3)Gal(b1-4)[Fuc(a1-3)]GlcNAc
# In short: as §1
# [6] = biological target: Neu5Ac(a2-3)Gal(b1-4)[Fuc(a1-3)]GlcNAc(b1-2)Man
# In short: as §1
# [7] = biological target: Neu5Ac(a2-3)Gal(b1-4)[Fuc(a1-3)]GlcNAc(b1-3)Gal
# In short: as §1
# [8] = biological target: Neu5Ac(a2-3)Gal(b1-4)[Fuc(a1-3)]GlcNAc(b1-3)Gal(b1-4)GlcNAc
# In short: as §1
# [9] = biological target: Neu5Ac(a2-3)Gal(b1-4)[Fuc(a1-3)]GlcNAc(b1-3)Gal(b1-4)[Fuc(a1-3)]GlcNAc(b1-3)Gal(b1-4)[Fuc(a1-3)]GlcNAc
# In short: as §1
# [10] = biological target: Neu5Ac(a2-3)Gal(b1-4)[Fuc(a1-3)]GlcNAc(b1-3)GalNAc
# In short: as §1
# [11] = biological target: Neu5Ac(a2-3)Gal(b1-4)[Fuc(a1-3)]GlcNAc(b1-6)[Gal(b1-3)]GalNAc
# In short: as §1
# [12] = biological target: Neu5Ac(a2-3)Gal(b1-4)[Fuc(a1-3)]GlcNAc(b1-6)[Neu5Ac(a2-3)Gal(b1-3)]GalNAc
# In short: as §1
# [13] = biological target: Neu5Ac(a2-3)Gal(b1-4)[Fuc(a1-3)]GlcNAc6S
# In short: as §1
# [14] = biological target: Neu5Ac(a2-3)Gal6S(b1-4)GlcNAc
# In short: as §1
# [15] = biological target: Neu5Ac(a2-3)Gal6S(b1-4)[Fuc(a1-3)]GlcNAc
# In short: as §1
# Neu5Ac(a2-3)GalNAc = biological target: Neu5Ac(a2-3)GalNAc
# In short: as §1
# [16] = biological target: Neu5Ac(a2-3)GalNAc(b1-4)GlcNAc
# In short: as §1
# [17] = biological target: Neu5Ac(a2-3)[GalNAc(b1-4)]Gal(b1-4)Glc
# In short: as §1
# [18] = biological target: Neu5Ac(a2-3)[GalNAc(b1-4)]Gal(b1-4)GlcNAc
# In short: as §1
# [19] = biological target: Neu5Ac(a2-3)[GalNAc(b1-4)]Gal(b1-4)GlcNAc(b1-3)GalNAc
# In short: as §1
# [20] = biological target: Neu5Ac(a2-3)[Neu5Ac(a2-6)]GalNAc
# In short: as §1
# Neu5Ac(a2-6)Gal = biological target: Neu5Ac(a2-6)Gal
# In short: as §1
# [21] = biological target: Neu5Ac(a2-6)Gal(b1-3)GlcNAc(b1-3)[Gal(b1-4)GlcNAc(b1-6)]Gal(b1-4)Glc
# In short: as §1
# Neu5Ac(a2-6)Gal(b1-4)Glc = biological target: Neu5Ac(a2-6)Gal(b1-4)Glc
# In short: as §1
# [22] = biological target: Neu5Ac(a2-6)Gal(b1-4)GlcNAc
# In short: as §1
# [23] = biological target: Neu5Ac(a2-6)Gal(b1-4)GlcNAc(b1-2)Man
# In short: as §1
# [24] = biological target: Neu5Ac(a2-6)Gal(b1-4)GlcNAc(b1-2)Man(a1-3)Man(b1-4)GlcNAc(b1-4)GlcNAc
# In short: as §1
# [25] = biological target: Neu5Ac(a2-6)Gal(b1-4)GlcNAc(b1-2)Man(a1-3)[Gal(b1-4)GlcNAc(b1-2)Man(a1-6)]Man(b1-4)GlcNAc(b1-4)GlcNAc
# In short: as §1
# [26] = biological target: Neu5Ac(a2-6)Gal(b1-4)GlcNAc(b1-2)Man(a1-3)[GlcNAc(b1-2)Man(a1-6)]Man(b1-4)GlcNAc(b1-4)GlcNAc
# In short: as §1
# [27] = biological target: Neu5Ac(a2-6)Gal(b1-4)GlcNAc(b1-2)Man(a1-3)[GlcNAc(b1-2)Man(b1-4)GlcNAc(b1-2)Man(a1-6)]Man(b1-4)GlcNAc(b1-4)GlcNAc
# In short: as §1
# [28] = biological target: Neu5Ac(a2-6)Gal(b1-4)GlcNAc(b1-2)Man(a1-3)[GlcNAc(b1-4)][Neu5Ac(a2-6)Gal(b1-4)GlcNAc(b1-2)Man(a1-6)]Man(b1-4)GlcNAc(b1-4)GlcNAc
# In short: as §1
# [29] = biological target: Neu5Ac(a2-6)Gal(b1-4)GlcNAc(b1-2)Man(a1-3)[Man(a1-6)]Man(b1-4)GlcNAc(b1-4)GlcNAc
# In short: as §1
# [30] = biological target: Neu5Ac(a2-6)Gal(b1-4)GlcNAc(b1-2)Man(a1-3)[Neu5Ac(a2-3)Gal(b1-4)GlcNAc(b1-2)Man(a1-6)]Man(b1-4)GlcNAc(b1-4)GlcNAc
# In short: as §1
# [31] = biological target: Neu5Ac(a2-6)Gal(b1-4)GlcNAc(b1-2)Man(a1-3)[Neu5Ac(a2-6)Gal(b1-4)GlcNAc(b1-2)Man(a1-6)]Man(b1-4)GlcNAc(b1-4)GlcNAc
# In short: as §1
# [32] = biological target: Neu5Ac(a2-6)Gal(b1-4)GlcNAc(b1-2)Man(a1-3)[Neu5Ac(a2-6)Gal(b1-4)GlcNAc(b1-2)Man(a1-6)]Man(b1-4)GlcNAc(b1-4)[Fuc(a1-6)]GlcNAc
# In short: as §1
# [33] = biological target: Neu5Ac(a2-6)Gal(b1-4)GlcNAc(b1-2)Man(a1-6)Man(b1-4)GlcNAc(b1-4)GlcNAc
# In short: as §1
# [34] = biological target: Neu5Ac(a2-6)Gal(b1-4)GlcNAc(b1-2)Man(a1-6)[Gal(b1-4)GlcNAc(b1-2)Man(a1-3)]Man(b1-4)GlcNAc(b1-4)GlcNAc
# In short: as §1
# [35] = biological target: Neu5Ac(a2-6)Gal(b1-4)GlcNAc(b1-2)Man(a1-6)[GlcNAc(b1-2)Man(a1-3)]Man(b1-4)GlcNAc(b1-4)GlcNAc
# In short: as §1
binder,measurement,setting,value
B1,glycan array binding signal (z-score),[1],3.89
same,glycan array binding signal (z-score),[2],-0.214
same,glycan array binding signal (z-score),[3],-0.364
same,glycan array binding signal (z-score),[4],-0.299
same,glycan array binding signal (z-score),[5],-0.311
same,glycan array binding signal (z-score),[6],-0.265
same,glycan array binding signal (z-score),[7],-0.287
same,glycan array binding signal (z-score),[8],-0.233
same,glycan array binding signal (z-score),[9],-0.327
same,glycan array binding signal (z-score),[10],-0.175
same,glycan array binding signal (z-score),[11],-0.237
same,glycan array binding signal (z-score),[12],-0.153
same,glycan array binding signal (z-score),[13],-0.285
same,glycan array binding signal (z-score),[14],-0.278
same,glycan array binding signal (z-score),[15],-0.235
same,glycan array binding signal (z-score),Neu5Ac(a2-3)GalNAc,-0.114
same,glycan array binding signal (z-score),[16],-0.321
same,glycan array binding signal (z-score),[17],1.54
same,glycan array binding signal (z-score),[18],0.725
same,glycan array binding signal (z-score),[19],-0.066
same,glycan array binding signal (z-score),[20],-0.183
same,glycan array binding signal (z-score),Neu5Ac(a2-6)Gal,-0.197
same,glycan array binding signal (z-score),[21],-0.259
same,glycan array binding signal (z-score),Neu5Ac(a2-6)Gal(b1-4)Glc,-0.298
same,glycan array binding signal (z-score),[22],-0.252
same,glycan array binding signal (z-score),[23],-0.302
same,glycan array binding signal (z-score),[24],-0.108
same,glycan array binding signal (z-score),[25],-0.16
same,glycan array binding signal (z-score),[26],-0.22
same,glycan array binding signal (z-score),[27],-0.218
same,glycan array binding signal (z-score),[28],-0.257
same,glycan array binding signal (z-score),[29],-0.276
same,glycan array binding signal (z-score),[30],-0.259
same,glycan array binding signal (z-score),[31],-0.271
same,glycan array binding signal (z-score),[32],-0.247
same,glycan array binding signal (z-score),[33],-0.268
same,glycan array binding signal (z-score),[34],-0.254
same,glycan array binding signal (z-score),[35],-0.175
